Experimental data reported in article PMC5892938.
This is one part of the list. At the low end of the ranking, values are background and their order means little.

target: GST-SBP-SLBP (stem-loop binding protein) (UniProt Q14493); test: targeted RNA Bind-n-Seq; conditions: RBNS binding buffer: 25 mM Tris pH 7.5, 150 mM KCl, 3 mM MgCl2, 0.1% Tween, 0.5 mg/mL BSA, 1 mM DTT; 27 nM protein, 750 pM RNA pool; temperature not stated; high values mean tight binding;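 note: DESeq read counts versus GST-SBP nonspecific binding control pulldown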

| Sequence | binding signal (log2 fold change) |
| --- | --- |
| GGUCACGUCUCAAUCAACUCAUCUCCCAGGGAAAGCCCUGGCAAUCUCAACAGCUCGCAGUCAAG | -0.135 |
| GGUCACGUCUCAAUCAACUCUUCUUCCAGGGAAAUCCCUGGCAUUUUCAACAGCUCGCAGUCAAG | -0.0522 |
| GGUCACGUCUCAAUCAACUCACCCGAGGGGGGGAAAACCCCUUUACCCUCAUUAUCAACAGCUCGCAGUCAAG | 0.251 |
| GGUCACGUCUCAAUCAACUCUUCCUCCAGGGAAAGCCCUGGUUUUUUCAACAGCUCGCAGUCAAG | -0.166 |
| GGUCACGUCUCAAUCAACUCAACGCCAGGAGUUUACUCCUGCAAAUUCAACAGCUCGCAGUCAAG | -0.0755 |
| GGUCACGUCUCAAUCAACUCUUUUUCCAGGGAAACCCCUGGCUAUCUCAACAGCUCGCAGUCAAG | 0.131 |
| GGUCACGUCUCAAUCAACUCAUUCUCAGGAGUUUACUCCUGCAUAGUCAACAGCUCGCAGUCAAG | 0.00329 |
| GGUCACGUCUCAAUCAACUCCUAAGAGGGGGGGAAAACCCCUUUGCCCUCCAUGUCAACAGCUCGCAGUCAAG | -0.155 |
| GGUCACGUCUCAAUCAACUCAAUCUCCAGGGAAAACCCUGGUAAACUCAACAGCUCGCAGUCAAG | 0.181 |
| GGUCACGUCUCAAUCAACUCUAAGGAGGGGGGGAAAACCCCUUUACCCUCAUACUCAACAGCUCGCAGUCAAG | -0.0232 |
| GGUCACGUCUCAAUCAACUCUUUCCCCAGGGAAAGCCCUGGCAUACUCAACAGCUCGCAGUCAAG | -0.0323 |
| GGUCACGUCUCAAUCAACUCACUAGAGGGGGGGAAAACCCCUUUACCCUCAACAUCAACAGCUCGCAGUCAAG | 0.0365 |
| GGUCACGUCUCAAUCAACUCUUUCUCCAGGGAAAACCCUGGUUAACUCAACAGCUCGCAGUCAAG | 0.127 |
| GGUCACGUCUCAAUCAACUCUCACGAGGGGGGGAAAACCCCUUUACCCUCAUCAUCAACAGCUCGCAGUCAAG | -0.0221 |
| GGUCACGUCUCAAUCAACUCAACGCCAGGAGUUUUCUCCUGCUAUUUCAACAGCUCGCAGUCAAG | -0.0418 |
| GGUCACGUCUCAAUCAACUCAUCCCCCAGGGAAAACCCUGGUUUAUUCAACAGCUCGCAGUCAAG | -0.152 |
| GGUCACGUCUCAAUCAACUCAGUCUCAGGAGUUUGCUCCUGCAUAUUCAACAGCUCGCAGUCAAG | 0.0927 |
| GGUCACGUCUCAAUCAACUCAAUUCCCAGGGAAAGCCCUGGCUUACUCAACAGCUCGCAGUCAAG | -0.249 |
| GGUCACGUCUCAAUCAACUCAUCCUCCAGGGAAACCCCUGGUAAUCUCAACAGCUCGCAGUCAAG | -0.0848 |
| GGUCACGUCUCAAUCAACUCUUCCUCAGGAGUUUACUCCUGUAUUUUCAACAGCUCGCAGUCAAG | 0.00623 |
| GGUCACGUCUCAAUCAACUCAACUUCCAGGGAAACCCCUGGUAAACUCAACAGCUCGCAGUCAAG | 0.177 |
| GGUCACGUCUCAAUCAACUCUUUCCCAGGAGUUUACUCCUGCUAAUUCAACAGCUCGCAGUCAAG | 0.0344 |
| GGUCACGUCUCAAUCAACUCAUCGCCCAGGGAAACCCCUGGUAUAUUCAACAGCUCGCAGUCAAG | 0.195 |
| GGUCACGUCUCAAUCAACUCUUUCUCAGGAGUUUGCUCCUGCAAUUUCAACAGCUCGCAGUCAAG | 0.0895 |
| GGUCACGUCUCAAUCAACUCUAUUUCCAGGGAAACCCCUGGUUUUCUCAACAGCUCGCAGUCAAG | -0.0664 |

| Sequence | binding signal (log2 fold change) |
| --- | --- |
| GGUCACGUCUCAAUCAACUCUCUAGAGGGGGGGAAAACCCCUUUGCCCUCAAUGUCAACAGCUCGCAGUCAAG | -0.114 |
| GGUCACGUCUCAAUCAACUCAGUCUCCAGGGAAACCCCUGGCUUUUUCAACAGCUCGCAGUCAAG | -0.125 |
| GGUCACGUCUCAAUCAACUCUAUUUCCAGGGAAAACCCUGGUUUUUUCAACAGCUCGCAGUCAAG | -0.231 |
| GGUCACGUCUCAAUCAACUCAUCCUCCAGGGAAAACCCUGGUUAACUCAACAGCUCGCAGUCAAG | -0.194 |
| GGUCACGUCUCAAUCAACUCUAUCUCAGGAGUUUUCUCCUGCAUUCUCAACAGCUCGCAGUCAAG | -0.0426 |
| GGUCACGUCUCAAUCAACUCAUUUCCAGGAGUUUGCUCCUGCUUUCUCAACAGCUCGCAGUCAAG | -0.053 |
| GGUCACGUCUCAAUCAACUCUUCCCCAGGAGUUUACUCCUGCAUAUUCAACAGCUCGCAGUCAAG | -0.0729 |
| GGUCACGUCUCAAUCAACUCUAUCCCCAGGGAAAGCCCUGGUAAACUCAACAGCUCGCAGUCAAG | -0.0617 |
| GGUCACGUCUCAAUCAACUCCAUAGAGGGGGGGAAAACCCCUUUGCCCUCAAUUUCAACAGCUCGCAGUCAAG | 0.426 |
| GGUCACGUCUCAAUCAACUCUAUCCCAGGAGUUUACUCCUGCUUUUUCAACAGCUCGCAGUCAAG | -0.0743 |
| GGUCACGUCUCAAUCAACUCAUUUCCCAGGGAAAUCCCUGGCUUAUUCAACAGCUCGCAGUCAAG | 0.0292 |
| GGUCACGUCUCAAUCAACUCAACUCCAGGAGUUUUCUCCUGUAAUGUCAACAGCUCGCAGUCAAG | 0.0275 |
| GGUCACGUCUCAAUCAACUCUUCUUCCAGGGAAACCCCUGGCGUAUUCAACAGCUCGCAGUCAAG | 0.0792 |
| GGUCACGUCUCAAUCAACUCUAAAGAGGGGGGGAAAACCCCUUUGCCCUCAUUUUCAACAGCUCGCAGUCAAG | -0.789 |
| GGUCACGUCUCAAUCAACUCUAGUCCAGGAGUUUUCUCCUGUUUAUUCAACAGCUCGCAGUCAAG | 0.0691 |
| GGUCACGUCUCAAUCAACUCUCAAGAGGGGGGGAAAACCCCUUUACCCUCAAUUUCAACAGCUCGCAGUCAAG | -0.102 |
| GGUCACGUCUCAAUCAACUCAUUCCCAGGAGUUUACUCCUGUAAUUUCAACAGCUCGCAGUCAAG | 0.331 |
| GGUCACGUCUCAAUCAACUCAGUUCCAGGAGUUUUCUCCUGCUUAUUCAACAGCUCGCAGUCAAG | -0.0573 |
| GGUCACGUCUCAAUCAACUCAGUCUCCAGGGAAAGCCCUGGCAUAUUCAACAGCUCGCAGUCAAG | -0.188 |
| GGUCACGUCUCAAUCAACUCUAGUCCCAGGGAAAUCCCUGGCAAUCUCAACAGCUCGCAGUCAAG | -0.0203 |
| GGUCACGUCUCAAUCAACUCUAUUUCAGGAGUUUUCUCCUGCAAACUCAACAGCUCGCAGUCAAG | 0.0732 |
| GGUCACGUCUCAAUCAACUCUAUUUCCAGGGAAACCCCUGGCUAUCUCAACAGCUCGCAGUCAAG | 0.0945 |
| GGUCACGUCUCAAUCAACUCAUCCCCAGGAGUUUACUCCUGUUUUUUCAACAGCUCGCAGUCAAG | 0.0173 |
| GGUCACGUCUCAAUCAACUCAACUUCCAGGGAAAUCCCUGGUUUAUUCAACAGCUCGCAGUCAAG | -0.0939 |
| GGUCACGUCUCAAUCAACUCAAUCGAGGGGGGGAAAACCCCUUUACCCUCACAAUCAACAGCUCGCAGUCAAG | 0.157 |

| Sequence | binding signal (log2 fold change) |
| --- | --- |
| GGUCACGUCUCAAUCAACUCACAAGAGGGGGGGAAAACCCCUUUGCCCUCGUAAUCAACAGCUCGCAGUCAAG | -0.318 |
| GGUCACGUCUCAAUCAACUCAAUCCCAGGAGUUUUCUCCUGCUAAGUCAACAGCUCGCAGUCAAG | 0.206 |
| GGUCACGUCUCAAUCAACUCAUUAGAGGGGGGGAAAACCCCUUUACCCUCAAUUUCAACAGCUCGCAGUCAAG | 0.0094 |
| GGUCACGUCUCAAUCAACUCUCCGGAGGGGGGGAAAACCCCUUUACCCUCAUCUUCAACAGCUCGCAGUCAAG | -0.0595 |
| GGUCACGUCUCAAUCAACUCAUCUUCAGGAGUUUACUCCUGCUUUUUCAACAGCUCGCAGUCAAG | 0.242 |
| GGUCACGUCUCAAUCAACUCUCUAGAGGGGGGGAAAACCCCUUUACCCUCAAUGUCAACAGCUCGCAGUCAAG | 0.0174 |
| GGUCACGUCUCAAUCAACUCUUUCUCCAGGGAAAUCCCUGGCAAUUUCAACAGCUCGCAGUCAAG | 0.055 |
| GGUCACGUCUCAAUCAACUCAUUAGAGGGGGGGAAAACCCCUUUGCCCUCCGUAUCAACAGCUCGCAGUCAAG | -0.113 |
| GGUCACGUCUCAAUCAACUCAUCGCCAGGAGUUUACUCCUGUUUUCUCAACAGCUCGCAGUCAAG | -0.0646 |
| GGUCACGUCUCAAUCAACUCCUACGAGGGGGGGAAAACCCCUUUACCCUCCAAAUCAACAGCUCGCAGUCAAG | 0.178 |
| GGUCACGUCUCAAUCAACUCUUCCUCCAGGGAAACCCCUGGUAAUUUCAACAGCUCGCAGUCAAG | -0.0419 |
| GGUCACGUCUCAAUCAACUCUAAAGAGGGGGGGAAAACCCCUUUACCCUCACCAUCAACAGCUCGCAGUCAAG | -0.193 |
| GGUCACGUCUCAAUCAACUCAUUUCCCAGGGAAACCCCUGGUUAUUUCAACAGCUCGCAGUCAAG | 0.00328 |
| GGUCACGUCUCAAUCAACUCAAUAGAGGGGGGGAAAACCCCUUUACCCUCACUAUCAACAGCUCGCAGUCAAG | -0.218 |
| GGUCACGUCUCAAUCAACUCAUUUUCAGGAGUUUCCUCCUGCAUAUUCAACAGCUCGCAGUCAAG | 0.0879 |
| GGUCACGUCUCAAUCAACUCUUUCCCCAGGGAAAACCCUGGUUUAUUCAACAGCUCGCAGUCAAG | -0.221 |
| GGUCACGUCUCAAUCAACUCUUCCCCCAGGGAAAACCCUGGCAUUUUCAACAGCUCGCAGUCAAG | 0.0691 |
| GGUCACGUCUCAAUCAACUCAAUUUCCAGGGAAAACCCUGGCUUACUCAACAGCUCGCAGUCAAG | 0.0684 |
| GGUCACGUCUCAAUCAACUCUUCGUCCAGGGAAAACCCUGGCAUUUUCAACAGCUCGCAGUCAAG | 0.00161 |
| GGUCACGUCUCAAUCAACUCAUUUCCCAGGGAAAACCCUGGCUAUCUCAACAGCUCGCAGUCAAG | 0.0963 |
| GGUCACGUCUCAAUCAACUCAACUCCAGGAGUUUACUCCUGCAAAUUCAACAGCUCGCAGUCAAG | -0.0675 |
| GGUCACGUCUCAAUCAACUCUUUCUCCAGGGAAAGCCCUGGCAUACUCAACAGCUCGCAGUCAAG | -0.0962 |
| GGUCACGUCUCAAUCAACUCAAUCUCCAGGGAAACCCCUGGCUUACUCAACAGCUCGCAGUCAAG | 0.244 |
| GGUCACGUCUCAAUCAACUCAUCUUCAGGAGUUUACUCCUGUAUUCUCAACAGCUCGCAGUCAAG | 0.13 |
